This note sets out measurements from ChEMBL document CHEMBL5606460, “ASAP - DENV-2 NS2B-NS3 protease fluorescence single point” (2024).

The whole screen tested about 2,000 compounds, of which about 110 (5.5%) showed an effect of 50% or more. The list shows a part of the results. Residues, ends and D or L forms follow the SMILES beside them. *: point of attachment. Boc = CC(C)(C)OC(=O)*

What is called inhibition is the drop in the measured response relative to a control, in per cent.

The assay addresses Genome polyprotein (dengue virus type 2) (UniProt P29990).
[1] abbreviates: Thailand/16681/1984, Concentration 25.0 uM, Number of replicates 1.0.

Regarding `CC(C)c1cc(CNC(=O)[C@]2(c3ccc(F)cc3)CCCNC2)[nH]n1`, the inhibition was -0.311% (Thailand/16681/1984, Concentration 49.5 uM, Number of replicates 2.0, Standard deviation 0.4691512826590698 %); 0.773% (Thailand/16681/1984, Concentration 99.01 uM, Number of replicates 2.0, Standard deviation 0.2530804456588207 %); 0.844% (Thailand/16681/1984, Concentration 198.0 uM, Number of replicates 2.0, Standard deviation 1.1238949088177357 %).
For the compound `Cc1cnccc1CN1CCC(c2c[nH]c3cccnc23)CC1`, the inhibition is -1.55% (Thailand/16681/1984, Concentration 49.5 uM, Number of replicates 2.0, Standard deviation 2.9317478900876757 %); -1.09% (Thailand/16681/1984, Concentration 99.01 uM, Number of replicates 2.0, Standard deviation 4.2441940513680025 %); -1.04% (Thailand/16681/1984, Concentration 198.0 uM, Number of replicates 2.0, Standard deviation 4.124648308783217 %).
`Cn1cc([C@@H](NC(=O)OCc2ccccc2)C(=O)Nc2cccc(CN)c2)cn1`: the inhibition is, setting by setting: (Thailand/16681/1984, Concentration 49.5 uM, Number of replicates 2.0, Standard deviation 1.4908611467254307 %) -3.8%; (Thailand/16681/1984, Concentration 99.01 uM, Number of replicates 2.0, Standard deviation 0.7231895128161225 %) -3.33%; (Thailand/16681/1984, Concentration 198.0 uM, Number of replicates 2.0, Standard deviation 0.43381818607220846 %) -2.85%.
Regarding `Cc1cc(CO)c2cccc(Cc3ccccc3NC(=O)c3ccc(N)nn3)c2n1`, the inhibition reads like this: (Thailand/16681/1984, Concentration 49.95 uM, Number of replicates 2.0, Standard deviation 0.1848599866889806 %) -0.161%; (Thailand/16681/1984, Concentration 99.9 uM, Number of replicates 2.0, Standard deviation 2.497340870394922 %) 0.405%.
For `O=C(NCCc1c[nH]cn1)[C@@]1(c2ccc(F)cc2)CCCNC1`, the inhibition (Thailand/16681/1984, Concentration 50.0 uM, Number of replicates 2.0, Standard deviation 0.3370852681809151 %) was 1.11%; the inhibition (Thailand/16681/1984, Concentration 100.0 uM, Number of replicates 2.0, Standard deviation 0.3435886111998431 %) is 2%; the inhibition (Thailand/16681/1984, Concentration 200.0 uM, Number of replicates 2.0, Standard deviation 1.0551527587912057 %) turned out to be 1.4%.
Take `O=Cc1ccc(N2CCC(C(=O)Nc3ccc([N+](=O)[O-])c4ccccc34)CC2)cc1`: under setting [1], the inhibition amounted to 13.5%.
Regarding `c1ccc2c([C@H]3CCN(Cc4cnns4)C3)c[nH]c2c1`, the inhibition is -4.38% (Thailand/16681/1984, Concentration 49.5 uM, Number of replicates 2.0, Standard deviation 3.0780463869115993 %); -3.43% (Thailand/16681/1984, Concentration 99.01 uM, Number of replicates 2.0, Standard deviation 2.5330949692173803 %); 0.233% (Thailand/16681/1984, Concentration 198.0 uM, Number of replicates 2.0, Standard deviation 2.7142685080443707 %).
As for `CCC1CCN(Cc2c[nH]c3ccccc23)CC1`, the inhibition (Thailand/16681/1984, Concentration 49.5 uM, Number of replicates 2.0, Standard deviation 2.7396823833468638 %) was -3.92%; the inhibition (Thailand/16681/1984, Concentration 99.01 uM, Number of replicates 2.0, Standard deviation 2.111384308316896 %) is -4.24%; the inhibition (Thailand/16681/1984, Concentration 198.0 uM, Number of replicates 2.0, Standard deviation 2.001031509888762 %) is -1.98%.
Consider `O=Cc1ccc(N2CCC(C(=O)N3CCC(CCN4CCCC4)CC3)CC2)cc1`, for which, under setting [1], the inhibition came to 8.07%.
Consider `CN(C)Cc1cn(C2CN(C(=O)c3ccc4[nH]ncc4c3)C2)nn1`, for which the inhibition is -5.6% (Thailand/16681/1984, Concentration 49.5 uM, Number of replicates 2.0, Standard deviation 0.3597803345796673 %); -5.01% (Thailand/16681/1984, Concentration 99.01 uM, Number of replicates 2.0, Standard deviation 1.1960695666756216 %); -4.95% (Thailand/16681/1984, Concentration 198.0 uM, Number of replicates 2.0, Standard deviation 1.2525682600414454 %).
Consider `O=C(NCCc1ccn[nH]1)c1cccc2c1NC(=O)[C@]1(CCCN1)C2`, for which the inhibition was -3.1% (Thailand/16681/1984, Concentration 49.5 uM, Number of replicates 2.0, Standard deviation 2.5151229629564558 %); -2.79% (Thailand/16681/1984, Concentration 99.01 uM, Number of replicates 2.0, Standard deviation 3.956768618278056 %); -2.4% (Thailand/16681/1984, Concentration 198.0 uM, Number of replicates 2.0, Standard deviation 5.068823694998207 %).
With `CSCC[C@H](NC(=O)OC(C)(C)C)C(=O)N1CCC[C@H]1C(=O)O` (Boc-Met-Pro-OH), the inhibition reads like this: (Thailand/16681/1984, Concentration 49.5 uM, Number of replicates 2.0, Standard deviation 1.4939910981363953 %) -1.39%; (Thailand/16681/1984, Concentration 99.01 uM, Number of replicates 2.0, Standard deviation 1.5598464340184859 %) -2.18%; (Thailand/16681/1984, Concentration 198.0 uM, Number of replicates 2.0, Standard deviation 1.150019372083588 %) -1.35%.
`COc1cc(COc2cc(C)c(C)nn2)nc(N2CCNCC2)n1`: the inhibition is -2.23% (Thailand/16681/1984, Concentration 49.5 uM, Number of replicates 2.0, Standard deviation 0.14766165234531128 %); -0.476% (Thailand/16681/1984, Concentration 99.01 uM, Number of replicates 2.0, Standard deviation 1.3842147000084961 %); 1.4% (Thailand/16681/1984, Concentration 198.0 uM, Number of replicates 2.0, Standard deviation 1.2288529448807899 %).
Regarding `Cc1cc(CO)c2cccc(Cc3ccccc3C(=O)N3C[C@H](O)C[C@H]3C(=O)O)c2n1`, the inhibition is -2.6% (Thailand/16681/1984, Concentration 49.95 uM, Number of replicates 2.0, Standard deviation 1.2669833251691414 %) and 0.69% (Thailand/16681/1984, Concentration 99.9 uM, Number of replicates 2.0, Standard deviation 2.201230894776843 %).
Regarding `Cc1ccc([C@H](CNC(=O)C2CCN(c3ccc(C=O)cc3)CC2)N(C)C)cc1`, the inhibition under setting [1] stood at 11.2%.
On to `O=C(c1ccn([C@H]2CCCNC2)n1)N1CCO[C@@H](c2n[nH]c(CO)n2)C1`, for which the inhibition reads like this: (Thailand/16681/1984, Concentration 49.5 uM, Number of replicates 2.0, Standard deviation 3.041044909960612 %) -3.65%; (Thailand/16681/1984, Concentration 99.01 uM, Number of replicates 2.0, Standard deviation 0.8836043800523453 %) -2.4%; (Thailand/16681/1984, Concentration 198.0 uM, Number of replicates 2.0, Standard deviation 3.6375578548923917 %) -0.866%.
Turning to `Cc1cc(CO)c2cccc(NC(=O)c3ccc(-c4ccccn4)s3)c2n1`, the inhibition was found to be 14.9% (Thailand/16681/1984, Concentration 49.95 uM, Number of replicates 2.0, Standard deviation 1.2154105868698768 %) and 20.9% (Thailand/16681/1984, Concentration 99.9 uM, Number of replicates 2.0, Standard deviation 2.2051689698611554 %).
As for `Cc1cc(CO)c2cccc(Cc3cccc(C(=O)N[C@@H](CCN)C(=O)O)c3)c2n1`, the inhibition by setting is: (Thailand/16681/1984, Concentration 49.95 uM, Number of replicates 2.0, Standard deviation 0.6194784255105775 %) -9.07%; (Thailand/16681/1984, Concentration 99.9 uM, Number of replicates 2.0, Standard deviation 14.524673907807347 %) 0.432%.
Consider `O=Cc1ccc(N2CCC(C(=O)Nc3ccc(I)c(F)c3)CC2)cc1`, for which the inhibition under setting [1] is 11.4%.
Turning to `O=Cc1ccc(N2CCC(C(=O)NCc3cccc(-c4ccccc4)c3)CC2)cc1`, the inhibition under setting [1] is 20.4%.
As for `CCc1nc(CCNC(=O)C2CCN(c3ccc(C=O)cc3)CC2)cs1`, the inhibition under setting [1] is 11.2%.
